For 90 molecules, Potency results are on record in PubChem BioAssay AID360 (National Center for Advancing Translational Sciences (NCATS), 2006).

The whole screen tested about 48,000 compounds, of which about 550 (1.1%) were called active. Roughly 4% stayed inconclusive and do not appear here. No stated cut-off is given here; in the data, active means potency below about 15 µM; inconclusive means mostly about 16 µM to 33 µM; inactive means weaker than that. The list shows a part of the results.
Potency means the concentration at half of the fitted maximal effect.

This assay concerns the target Lysosomal acid glucosylceramidase (Homo sapiens) (UniProt P04062). Nature of the assay: Glucocerebrosidase.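 Further: the screen sought inhibitors.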 To be noted: purified enzyme, resorufin glucoside fluorescence (screen aimed at inhibitors), 20 min. Summed up: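 Compounds titrated against 0.2 nM normal enzyme, 30 uM resorufin beta-D-glucopyranoside substrate, citrate/phosphate buffer with taurocholate and tween-20, pH 5.9. Reaction ran 20 min at room temperature; fluorescence (Ex 548/Em 600) gave AC50.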
Chain of UniProt P04062 (P04062 whole entry, looked up): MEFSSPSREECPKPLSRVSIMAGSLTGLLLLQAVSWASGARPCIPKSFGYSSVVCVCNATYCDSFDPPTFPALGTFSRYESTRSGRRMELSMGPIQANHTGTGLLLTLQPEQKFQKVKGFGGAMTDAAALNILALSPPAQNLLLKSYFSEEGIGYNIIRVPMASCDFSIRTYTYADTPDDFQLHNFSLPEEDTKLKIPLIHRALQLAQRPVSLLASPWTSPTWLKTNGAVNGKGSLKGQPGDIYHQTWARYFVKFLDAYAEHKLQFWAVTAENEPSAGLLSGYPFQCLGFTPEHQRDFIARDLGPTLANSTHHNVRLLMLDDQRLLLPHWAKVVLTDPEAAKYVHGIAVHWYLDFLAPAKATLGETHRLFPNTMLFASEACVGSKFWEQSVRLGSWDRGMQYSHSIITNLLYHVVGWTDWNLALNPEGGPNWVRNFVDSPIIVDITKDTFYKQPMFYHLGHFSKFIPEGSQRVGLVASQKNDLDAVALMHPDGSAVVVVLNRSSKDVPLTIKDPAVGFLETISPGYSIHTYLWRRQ
Consider `CCc1cccc(NC(=O)CN(C)S(=O)(=O)c2cccc3nsnc23)c1`, for which the Potency is inactive: > 76.9 µM. Take `CCN(CC)C(=O)CSc1nnc(CCN)o1`: the Potency is inactive: > 76.9 µM.

Take `CC12CCC(c3c(C(=O)O)nn(-c4ccccc4)c31)C2(C)C` (stereo not given): the Potency is inactive: > 76.9 µM.

For the molecule `CCOC(=O)C1CCCN(S(=O)(=O)c2cc(OCC(N)=O)c(C)cc2Cl)C1` (stereo not given), the Potency is inactive: > 76.9 µM. `CCOC(=O)c1cccc(NC(=O)CSc2nc(N)cc(N)n2)c1`: the Potency is inactive: > 76.9 µM. With `CCOCCCNC(=O)C1CCCN(S(=O)(=O)CC)C1` (stereo not given) the figure was inactive: > 76.9 µM; with `CCn1c(=O)cc(SCC(=O)Nc2ccc3c(c2)OCO3)c2ccccc21`, inactive: > 76.9 µM. With `CC(=O)c1cccc(NC(=O)NCc2cccnc2)c1` the figure was inactive: > 76.9 µM; with `CCCOc1ccc(C2C(C(=O)c3ccc(C)o3)=C(O)C(=O)N2CCCn2ccnc2)cc1` (stereo not given), inactive: > 76.9 µM. On to `COc1ccc(C2C3=C(CC(C)(C)CC3=O)N(CCN3CCOCC3)C3=C2C(=O)CC(C)(C)C3)cc1`, for which the Potency was inactive: > 76.9 µM. Take `COC(=O)[C@@H](NC(=O)NCc1ccco1)C(C)C`: the Potency is inactive: > 76.9 µM.

On to `Cc1cccc(N2CC(C(=O)Nc3ccc4c(c3)OCO4)CC2=O)c1C` (stereo not given), for which the Potency was inactive: > 76.9 µM.

On to `CC1CCN(S(=O)(=O)c2ccc3c(c2)CCN3C(=O)CCC(=O)O)CC1`, for which the Potency is inactive: > 76.9 µM.

Turning to `CC(C)CCn1c(Br)nc2c1c(=O)n(CC(N)=O)c(=O)n2C`, the Potency was inactive: > 76.9 µM.

In the case of `COc1ccc2c(c1)CCc1c(C(=O)Nc3cc(C)n(Cc4ccc(Cl)cc4)n3)noc1-2`, the Potency is inactive: > 76.9 µM. With `CC(=O)c1ccc(N2CCN(C(=O)C3CCCN(S(=O)(=O)c4cnc[nH]4)C3)CC2)cc1` (stereo not given), the Potency was inactive: > 76.9 µM. On to `CCn1nc(C(=O)OC2CCOC2=O)c2ccccc2c1=O` (stereo not given), for which the Potency was inactive: > 76.9 µM.

`Cc1ccc(NC(=O)N2CCCN(Cc3ccc(F)cc3)C2)cc1C`: the Potency entry was “inactive”.

As for `CCOC(=O)Cc1csc(NC(=O)CSc2nnc(-c3ccc(F)cc3)o2)n1`, the Potency was inactive: > 76.9 µM.

Regarding `CC(=O)c1cccc(OCC(=O)c2cc(C)n(-c3cc(C)on3)c2C)c1`, the Potency is inactive: > 76.9 µM. Take `Cc1cccc(NC(=O)CSc2nnc(-c3ccco3)o2)c1C`: the Potency was inactive: > 76.9 µM. For `Cc1cc(C)n(S(=O)(=O)c2cc(Cl)ccc2Cl)n1`, the Potency was inactive: > 76.9 µM.

As for `COc1ccccc1OCC(=O)Nc1cccc(C(=O)N2CCOCC2)c1`, the Potency was inactive: > 76.9 µM. With `Nc1nncn1C(=O)CCCOc1ccc(Cl)cc1Cl` the figure was inactive: > 76.9 µM; with `CC(=O)c1cccc(NC(=O)C2C3C=CC(C4CC34)C2C(=O)O)c1` (stereo not given), inactive: > 76.9 µM; with `CCCCn1c(SCc2ccc(Cl)cc2)nc2c1c(=O)[nH]c(=O)n2C`, inactive: > 76.9 µM.

Regarding `Cc1cccn2c(=O)c3cc(C(=O)NC(C)c4ccccc4)c(=N)n(CCCn4ccnc4)c3nc12` (stereo not given), the Potency entry is “inactive”. Turning to `CCSc1nc2c(c(=O)[nH]1)C(c1ccccn1)C1=C(CC(C)(C)CC1=O)N2` (stereo not given), the Potency was inactive: > 76.9 µM. Take `Cn1nnc2c(NCc3ccco3)nccc21`: the Potency is inactive: > 76.9 µM. The same measure for `COc1cc2nc(SCC(=O)NCc3ccco3)n(Cc3ccc(Cl)cc3)c(=O)c2cc1OC`: inactive: > 76.9 µM; for `O=C(Nc1ccc2nn(-c3ccccc3)nc2c1)c1cccnc1`: inactive: > 76.9 µM. Regarding `COc1ccc(C2C(C(=O)NCc3ccccn3)c3ccccc3C(=O)N2C)cc1OC` (stereo not given), the Potency is inactive: > 76.9 µM. Turning to `COc1cccc(NC(=O)CSc2nccn2-c2cccc(OC)c2)c1`, the Potency is inactive: > 76.9 µM. For `Cn1c2c(c(=O)n(C)c1=O)CN(CCCN1CCOCC1)CN2`, the Potency was inactive: > 76.9 µM. Turning to `NC(=O)c1nc(N2CCOCC2)nc(N2CCOCC2)n1`, the Potency was inactive: > 76.9 µM. As for `CN(C)C(=O)CSc1nnc(CCN)o1`, the Potency is inactive: > 76.9 µM.

Take `COCc1cc(C)n(CC(=O)Nc2ccccc2C(=O)OC)c(=O)c1C#N`: the Potency was inactive: > 76.9 µM. With `Cc1ccc2c(c1)N(CC(=O)NC1CCCCC1C)C(=O)CO2` (stereo not given), the Potency is inactive: > 76.9 µM.

Take `CCC(=O)OCc1cc2cccc(C)c2[nH]c1=O`: the Potency is inactive: > 76.9 µM. Turning to `CC1(C)CC(=O)c2sc(NS(C)(=O)=O)nc2C1`, the Potency is inactive: > 76.9 µM. With `Cc1noc(C)c1C(=O)Nc1cccnc1` the figure was inactive: > 76.9 µM; with `Nc1cc(N)nc(SCc2cccnc2)n1`, inactive: > 76.9 µM; with `CC(=O)NCCOc1ccc2oc3ccccc3c2c1`, inactive: > 76.9 µM. Consider `CS(=O)(=O)Nc1cccc(C(=O)CC2(O)C(=O)Nc3ccccc32)c1` (stereo not given), for which the Potency was inactive: > 76.9 µM. Turning to `Cc1cc(NC(=O)CSc2ccc3nnc(-c4ccc(F)cc4)n3n2)no1`, the Potency was inactive: > 76.9 µM. `O=C(CCCOc1ccc(Cl)cc1)N1CCCCCC1`: the Potency was inactive: > 76.9 µM. With `C=CCN1C(=O)CN=C1Nc1cc(C)ccc1C` the figure was inactive: > 76.9 µM; with `CSc1ccccc1NC(=O)CN(c1cccc(C)c1)S(C)(=O)=O`, inactive: > 76.9 µM. Take `CCC(C)NS(=O)(=O)c1cccs1` (stereo not given): the Potency is inactive: > 76.9 µM. As for `Cc1c(C(=O)O)nnn1-c1ccccc1`, the Potency is inactive: > 76.9 µM. For `COc1ccc(C)cc1N(CC(=O)Nc1cccc(N(C)S(C)(=O)=O)c1)S(C)(=O)=O`, the Potency is inactive: > 76.9 µM.

For the molecule `CCS(=O)(=O)N1CCCC(c2nc(-c3cccc(OC)c3)no2)C1` (stereo not given), the Potency was inactive: > 76.9 µM. Take `Cc1nc2ccc(NC(=O)N3CCOCC3)cc2s1`: the Potency is inactive: > 76.9 µM. Take `O=C(Nc1ccc2c(c1)OCO2)Nc1cnccn1`: the Potency is inactive: > 76.9 µM. As for `CCC(C)NC(=O)C1(C)CCC(=O)N1CCc1ccc(OC)c(OC)c1` (stereo not given), the Potency is inactive: > 76.9 µM. With `COc1ccccc1NC(=O)C1=C(C)Nc2ncnn2C1c1ccc(C)o1` (stereo not given), the Potency was inactive: > 76.9 µM. In the case of `COc1ccc2cc(CN(CC3COCCO3)S(=O)(=O)c3ccc(Cl)cc3)c(=O)[nH]c2c1` (stereo not given), the Potency was inactive: > 76.9 µM.

As to `CCOC(=O)c1[nH]c(C)c(/C(O)=C2\C(=O)C(=O)N(CCCN(CC)CC)C2c2cccnc2)c1C` (stereo not given), the Potency was inactive: > 76.9 µM. As for `O=C(CSc1nc2ccccc2[nH]1)c1ccco1`, the Potency is inactive: > 76.9 µM. For `Cc1nnc(SCC(=O)N2CCC(Cc3ccccc3)CC2)n(N)c1=O`, the Potency is inactive: > 76.9 µM.

As for `O=C(O)CCc1nc2ccccc2n(CCc2ccccc2)c1=O`, the Potency is inactive: > 76.9 µM. With `CCCCCOc1ccc(C(=O)N(Cc2ccco2)C2CCS(=O)(=O)C2)cc1` (stereo not given) the figure was inactive: > 76.9 µM; with `COc1ccccc1C(c1nnnn1CCc1ccccc1)N1CCN(c2ccccc2)CC1` (stereo not given), inactive: > 76.9 µM. With `Cn1c(SCC(=O)N2CCOCC2)nnc1-c1cnccn1`, the Potency is inactive: > 76.9 µM. For the molecule `c1ccc2c(c1)oc1c(NCc3ccc4c(c3)OCO4)ncnc12`, the Potency was inactive: > 76.9 µM. On to `CC(NC(=O)COc1ccccc1)C(c1ccccc1)N1CCN(C)CC1` (stereo not given), for which the Potency was inactive: > 76.9 µM. Take `O=C(CCN1C(=O)c2ccccc2C1=O)Nc1ccc(-c2cn3ccsc3n2)cc1`: the Potency is inactive: > 76.9 µM. Consider `CC1CC(C)CN(CCCNC(=O)COc2cc(=O)n(C)c3ccccc23)C1` (stereo not given), for which the Potency was inactive: > 76.9 µM.

For `Cc1noc(C)c1CSc1nnc(-c2ccncc2)n1-c1ccc(Cl)c(Cl)c1`, the Potency was inactive: > 76.9 µM. The same measure for `COc1cc(OC)c(OC)cc1CN1CCN(c2ccccc2OC)CC1`: inactive: > 76.9 µM; for `COc1ccc2nc(N3CCCC(O)C3)c(C#N)cc2c1` (stereo not given): inactive: > 76.9 µM; for `CCc1nnc(NC(=O)Cn2nnc(-c3ccccc3F)n2)s1`: active: 4.46 µM. For the molecule `Cc1ccc(S(=O)(=O)c2c(N)n(/N=C/c3ccco3)c3nc4ccccc4nc23)cc1`, the Potency is inactive: > 76.9 µM.

`COc1ccc(CCN2C(=NC(=O)CCC(=O)O)SC3CS(=O)(=O)CC32)cc1OC` (stereo not given): the Potency was inactive: > 76.9 µM. Regarding `CCOC(=O)C1=C(O)C(=O)N(c2ccc(S(N)(=O)=O)cc2)C1c1ccccc1` (stereo not given), the Potency is inactive: > 76.9 µM. For `CC(NC(=O)c1ccc(CS(=O)(=O)Cc2ccccc2F)o1)c1ccc2c(c1)OCCO2` (stereo not given), the Potency is inactive: > 76.9 µM. Regarding `COc1ccc(C(c2nnnn2Cc2cccs2)N2CCN(c3ccccc3)CC2)cc1OC` (stereo not given), the Potency was inactive: > 76.9 µM. With `Cc1nn(CC(C)C)c(=S)[nH]c1=O` the figure was inactive: > 76.9 µM; with `O=C(Nc1ccon1)c1cccc(S(=O)(=O)N2CCCC2)c1`, inactive: > 76.9 µM. Regarding `Cc1ccc2nc3c(cc(C(=O)NCCCn4ccnc4)n3C)c(=O)n2c1`, the Potency is inactive: > 76.9 µM. As to `Cn1c(=O)c2c(nc(SCC(=O)Nc3ccccc3N3CCCCC3)n2C)n(C)c1=O`, the Potency was inactive: > 76.9 µM. With `CC1(C)CC(=O)C2=C(C1)Nc1ccccc1N=C2` the figure was inactive: > 76.9 µM.

Consider `CCOc1ccc(OCC)c(NC(=O)CN(c2ccc(C)cc2)S(=O)(=O)c2c(C)noc2C)c1`, for which the Potency was inactive: > 76.9 µM. In the case of `Cc1csc(SCC(=O)NCc2cccs2)n1`, the Potency was inactive: > 76.9 µM.

In the case of `CC(=O)Nc1ccc(S(=O)(=O)NCCc2ccccc2)cc1`, the Potency was inactive: > 76.9 µM. As to `COC(=O)c1ccccc1NC(=O)N1CSC[C@H]1C(=O)OC`, the Potency is inactive: > 76.9 µM. The same measure for `Cc1ccc(CN(CC2CCCO2)C(=O)CN2C(=O)C(C(C)C)Oc3ccccc32)o1` (stereo not given): inactive: > 76.9 µM; for `CCOC(=O)N1CCN(C(=O)c2oc3ccc(S(=O)(=O)N4CCCCCC4)cc3c2C)CC1`: inactive: > 76.9 µM. On to `O=C(Nc1ccccc1-c1ccccc1)NC1CCN(CC(=O)N2CCOCC2)CC1`, for which the Potency entry was “inactive”.

On to `COc1ccc(OC)c(-c2cc(C(=O)Nc3cc(C)n(Cc4ccc(Cl)cc4)n3)no2)c1`, for which the Potency was inactive: > 76.9 µM.
